In PubChem BioAssay AID686979 (National Center for Advancing Translational Sciences (NCATS), 2013):
In all, about 420,000 compounds went through this assay and about 50,000 (12%) were called active. Inconclusive results, whose numbers are uncertain, are shown with a selection of clear calls. The call rests on the fitted dose curve; in most records, active means well fitted inhibition curve with a large enough effect; inconclusive means small, poorly fitted or top-dose-only effect; inactive means flat fitted curve, though single readings scatter. Potencies of inconclusive entries are left out as doubtful fits.

assay: qHTS for Inhibitors of human tyrosyl-DNA phosphodiesterase 1 (TDP1): qHTS in cells in presence of CPT; details: chicken DT40 Tdp1-/-;hTDP1 cells + 20 nM CPT, ATP luminescence, 48 h; activity change, negative = growth inhibition: at 46.2 µM (top of the series) unless noted; further: nearly all actives have a fitted effect of over 55% in size
Procedure, shortened: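 Cell growth measured by CellTiter-Glo luminescence after a minimum 48 h, 37 C compound exposure with 20 nM CPT in Tdp1-knockout DT40 cells stably expressing hTDP1, seeded 400/well; qHTS titration format.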
On the % scale 0 is the no-effect control and ±100 the full control effect; potency means the concentration at half of the fitted maximal effect; tags describe the fitted curve by direction and shape.

Row | SMILES | activity change, negative = growth inhibition | Potency
1 | CCc1noc(C)c1C(=O)NCCN1Cc2cc(OC)ccc2OC(CC)C1 (centres undefined) | inactive: -8.71% [at 9.04 µM] | 
2 | Cc1ccc(-c2nnc(Nc3ccc(Br)cc3)c3ccccc23)cc1S(=O)(=O)N1CCCCC1 | inactive: -8.98% | 
3 | CCCCCCSc1cc(-c2nc3ccc(Cl)cn3c2NC2CCCCC2)ccc1OC |  | inconclusive [inhibitor, single point]
4 | COc1ccc(S(=O)(=O)N2c3ccc(Cl)cc3[C@@](O)(c3ccccc3Cl)[C@H]2C(=O)N2CCC[C@@H]2C(N)=O)cc1OC |  | inconclusive [inhibitor, single point]
5 | CCCn1nc(C(=O)NC2CCCCCC2)c2ccccc2c1=O |  | inconclusive [inhibitor, single point]
6 | CCN(C(=O)COC(=O)c1oc2ccccc2c1C)c1c(N)n(Cc2ccccc2)c(=O)[nH]c1=O |  | inconclusive [inhibitor, single point]
7 | O=C(NCC(=O)N(CC1CCCO1)C1(C(=O)NC2CCCC2)CCCCC1)c1ccccc1 (centres undefined) | inactive: -1.49% | 
8 | CC1(C)CN(Cc2ccccc2)C(=O)[C@H]1CC(=O)Nc1ccc(Br)cc1 |  | inconclusive [inhibitor, single point]
9 | N=c1nc(N)nc2n1NC(c1ccc(F)cc1)=CS2 |  | active: 18.4 µM
10 | CCN(CC)S(=O)(=O)c1ccc2[nH]c(=O)c3ccccc3c2c1 |  | inconclusive [inhibitor, full curve, poor fit]
11 | Cc1csc(SCC(=O)NC(=O)NC2CCCC2)n1 | inactive: -20.7% | 
12 | CCOc1ccc(S(=O)(=O)Oc2ccc3ccccc3c2)cc1 |  | inconclusive [inhibitor, single point]
13 | CCCNC(=O)C(Cc1cccc(C#N)c1)NC(=O)c1ccc(C#N)cc1 (centres undefined) |  | inconclusive [inhibitor, partial curve]
14 | COc1ccc(CCNC(=O)Cc2c(Cl)cccc2Cl)cc1 | inactive: 2.36% | 
15 | CN1CCN(NC(=O)CN2C(=O)/C(=C/c3ccccc3Cl)SC2=S)CC1 |  | inconclusive [inhibitor, single point]
16 | COc1ccc(S(=O)(=O)N2CC(C)OC(C)C2)cc1C(=O)N1CCCCC1 (centres undefined) |  | inconclusive [inhibitor, partial curve, poor fit]
17 | CCOc1ccccc1C1CC(c2ccccc2)Nc2nc(N)nn21 (centres undefined) |  | inconclusive [inhibitor, partial curve]
18 | Cc1ccc(C(=O)NCC(c2ccc(F)cc2)N2CCOCC2)cc1S(=O)(=O)N1CCOCC1 (centres undefined) | inactive: -5.31% | 
19 | Cc1c(-c2ccc(F)cc2)nc(N)c(C#N)c1-c1cccs1 | inactive: -15% | 
20 | Cc1ccc(NC(=O)c2sccc2C)nc1 |  | inconclusive [inhibitor, single point]
21 | Cc1ccc2c(=O)cc(C(=O)Nc3c(C)n(C)n(-c4ccccc4)c3=O)oc2c1C | inactive: 1.59% | 
22 | COc1ccccc1NC(=O)Cn1c(=O)n(Cc2ccco2)c(=O)c2oc3ccccc3c21 |  | inconclusive [inhibitor, partial curve]
23 | CC1CCCN(S(=O)(=O)c2ccc3c(c2)c(=O)nc2ccc(Cl)cn23)C1 (centres undefined) | inactive: 0.535% | 

Row | SMILES | activity change, negative = growth inhibition | Potency
24 | CCN(CCNC(=O)c1ccc(C#N)cc1)c1cccc(C)c1 | inconclusive: -35.8% [inhibitor] | 
25 | O=C(CN1C(=O)C(c2ccc(F)cc2)=NC12CCCCCC2)Nc1ccc(F)c(Cl)c1 |  | inconclusive [inhibitor, single point]
26 | C=CCn1c(COc2ccccc2)nnc1SC(C)C(=O)N/N=C/c1cc(Cl)ccc1O (centres undefined) |  | inconclusive [inhibitor, single point]
27 | Cc1ccc(N2C(=O)CSC2c2cccnc2)c(Cl)c1 (centres undefined) |  | active: 18.4 µM
28 | CCCOc1ccc(NC(=O)CC2C(=O)N(c3ccccc3)C(=O)N2CCC(C)C)cc1 (centres undefined) |  | inconclusive [inhibitor, single point]
29 | O=C(O)C1CCC(=O)N1Cc1ccc(F)cc1 (centres undefined) | inactive: -12.2% | 
30 | CC1CCN(C(=O)Cn2cnc3c2c(=O)n(C)c(=O)n3C)c2ccccc2S1 (centres undefined) |  | inconclusive [inhibitor, partial curve, poor fit]
31 | CC(=O)N1CCOc2ccc(S(=O)(=O)N3CCCC(C)C3)cc21 (centres undefined) | inactive: 4.07% | 
32 | CCc1ccc2c(c1)[C@]1(C(=O)N2)[C@@H]2C(=O)N(Cc3ccccc3)C(=O)[C@@H]2[C@@H]2CCCN21 |  | inconclusive [inhibitor, single point]
33 | CCC(C(=O)NCCc1ccccc1)c1ccccc1 (centres undefined) | inactive: -2.94% | 
34 | Cc1cccc(-c2nnc3n2N=C(c2ccccc2Br)CS3)c1 |  | active: 20.6 µM
35 | CC1(C)Cc2c(C#N)c(N3CCOCC3)nc(Cc3ccccc3)c2CO1 |  | inconclusive [inhibitor, single point]
36 | CCC(C(=O)NCCc1ccccc1OC)n1nc(C)c2c(C)n(-c3ccccc3)nc2c1=O (centres undefined) |  | inconclusive [inhibitor, single point]
37 | CCOC(=O)c1c(C)n(C)c2ccc(OCC(O)Cn3nc(C)cc3C)cc12 (centres undefined) |  | inconclusive [inhibitor, single point]
38 | COc1cccc(C(=O)N(C)CC(=O)Nc2cccc3ccccc23)c1 | inactive: -13.2% | 
39 | COc1ccc(NS(=O)(=O)c2cccc(C(=O)N/N=C(\C)c3cccnc3)c2)cc1 | inactive: -16.7% | 
40 | COc1ccc(OCc2nnc(SCC(=O)N3c4ccccc4Sc4ccc(Cl)cc43)o2)cc1 |  | inconclusive [inhibitor, partial curve, poor fit]
41 | CCc1ccc(-c2cc(C(F)(F)F)n3nc(C(=O)Nc4c(C)nn(Cc5ccc(F)cc5)c4C)cc3n2)s1 |  | inconclusive [inhibitor, single point]
42 | CC1Cc2nc(SCC(=O)N3CCN(c4ccccc4)CC3)n(CCc3ccccc3)c(=O)c2S1 (centres undefined) |  | active: 18.4 µM
43 | COCCNC(=S)c1ccc(Br)cc1 |  | inconclusive [inhibitor, single point]
44 | COc1cc(/C=C2\SC(=S)N(NC(=O)c3ccc(O)cc3)C2=O)ccc1O | inactive: -3% | 
45 | c1ccc(OCc2nnc3n2N=C(c2ccccc2)CS3)cc1 |  | inconclusive [inhibitor, single point]
46 | C(=Cc1c[nH]c2ccccc12)c1ccc2ccccc2n1 |  | inconclusive [inhibitor, single point]

Row | SMILES | activity change, negative = growth inhibition | Potency
47 | COc1ccc(-n2nc(C(=O)NCC(=O)NCCCN3CC(C)CC(C)C3)c3ccccc3c2=O)cc1Cl (centres undefined) | inactive: -12.2% | 
48 | COc1cccc(N2CCN(C(=O)CN(C)S(=O)(=O)c3ccc4c(c3)c(=O)n(C)c(=O)n4C)CC2)c1 |  | inconclusive [inhibitor, single point]
49 | Cn1c(=O)c2c(nc(CN3CCC(Cc4ccccc4)CC3)n2CCN2CCOCC2)n(C)c1=O |  | inconclusive [inhibitor, partial curve]
50 | CC(C)C(c1nnnn1C1CCCCC1)N1CCc2ccccc2C1 (centres undefined) | inactive: -22.3% | 
51 | Fc1ccc(CN2CCC(Cc3ccccc3)CC2)cc1F | inactive: -30.2% | 
52 | Cc1cccc(CSc2nc3ccncc3n2CC(=O)Nc2cc(C)cc(C)c2)c1 |  | inconclusive [inhibitor, single point]
53 | CCOc1ccc(/C=N/Nc2nc(N3CCCC3)nc(N3CCCC3)n2)cc1OC | inactive: -29.9% | 
54 | CCC(Sc1nc2cc3c(cc2c(=O)n1Cc1ccco1)OCO3)C(=O)Nc1cccc(OC)c1 (centres undefined) |  | inconclusive [inhibitor, full curve, poor fit]
55 | CCOC(=O)c1cnc(-n2nc(C)cc2C)[nH]c1=O |  | inconclusive [inhibitor, single point]
56 | CCc1ccc(NC(=O)CSc2ccc3nnc(CCNS(=O)(=O)c4ccc(OC)cc4)n3n2)cc1 | inactive: -19.2% | 
57 | Cc1cc(OCCCSc2nc(-c3ccc(C(C)(C)C)cc3)nc3cc(=O)[nH]n23)ccc1Cl |  | inconclusive [inhibitor, single point]
58 | Cc1ccc(C(C(=O)NCc2ccccc2)N(C(=O)c2csnn2)C2CC2)cc1 (centres undefined) |  | inconclusive [inhibitor, single point]
59 | Cc1ccccc1NC(=O)c1ccccc1NC(=O)c1ccccc1Cl |  | inconclusive [inhibitor, single point]
60 | O=S(=O)(Nc1nc2c(s1)CCCC2)c1ccc(Br)cc1 |  | inconclusive [inhibitor, single point]
61 | COc1cccc(NC(=O)CN(C)C(=O)/C=C/c2cn(Cc3ccccc3)nc2-c2cccnc2)c1 |  | inconclusive [inhibitor, single point]
62 | Oc1ccc(F)c(CN2CCN(c3ncc(Cc4ccccc4)cn3)CC2)c1 |  | inconclusive [inhibitor, partial curve, poor fit]
63 | Cc1ccc2[nH]c(=O)c3cc(C(=O)NCC4CCCO4)sc3c2c1 (centres undefined) | inactive: -9.63% | 
64 | Cc1nc2ccc(S(=O)(=O)CCC(=O)Nc3ccc(F)cc3C)cc2s1 |  | inconclusive [inhibitor, single point]
65 | CC1=C(C(=O)N(C(C)C)C(C)C)CC(CC(=O)NC(c2ccccc2)c2ccccc2)C(=O)N1Cc1ccc(F)cc1 (centres undefined) |  | inconclusive [inhibitor, single point]
66 | O=C(COC(=O)c1cccc2ccccc12)NCCCc1ccccc1 |  | inactive
67 | COc1ccc(-c2noc(CN(C)S(=O)(=O)c3ccccc3)n2)cc1OC |  | active: 16.4 µM
68 | CCOc1ccc(NC(=O)c2ccc3nccnc3c2)cc1 |  | inconclusive [inhibitor, single point]
69 | Cc1nnc(NS(=O)(=O)c2ccc(F)cc2)s1 | inactive: -5.31% | 
